Test results from patent publication US20150023989A1, “NEW ANTIBODY DRUG CONJUGATES (ADCS) AND THE USE THEREOF” (SEATTLE GENETICS, INC., priority 2011, published 2015).

biological target: FGFR2 on the cell surface of human tumour cell lines (human), P21802; assay: cell-based or functional assay

Binder	MFM-223, IC50, 72 hr (growth inhibition)	SNU-16, IC50, 72 hr (growth inhibition)
Example 1 (immunoconjugate of M048-D01-hIgG1, coupled to cysteine side chains) (antibody, here or on the partner: auristatin linker-toxophore on sulphur atoms of cysteine residues of the partially reduced antibody, positions not stated (drug/mAb ratio 3.7 for the antibody)) heavy: QVELLESGGGLVQPGGSLRLSCAASGFTFSSYAMSWVRQAPGKGLEWVSAISGSGTSTYYADSVKGRFTISRDNSKNTLYLQMNSLRAEDTAVYYCARVRYNWNHGDWFDPWGQGTLVTVSS[no letters for human IgG1 constant region] light: QSVLTQPPSASGTPGQRVTISCSGSSSNIGNNYVSWYQQLPGTAPKLLIYENYNRPAGVPDRFSGSKSGTSASLAISGLRSEDEADYYCSSWDDSLNYWVFGGGTKLTVLGQPKAAPSVTLFPPSSEELQANKATLVCLISDFYPGAVTVAWKADSSPVKAGVETTTPSKQSNNKYAASSYLSLTPEQWKSHRSYSCQVTHEGSTVEKTVAPTECS	0.0907 nM	0.214 nM
Example 5 (immunoconjugate of M048-D01-hIgG1, coupled to cysteine side chains) (antibody, here or on the partner: auristatin linker-toxophore on sulphur atoms of cysteine residues of the partially reduced antibody, positions not stated (drug/mAb ratio 3.1 for the antibody)) heavy: QVELLESGGGLVQPGGSLRLSCAASGFTFSSYAMSWVRQAPGKGLEWVSAISGSGTSTYYADSVKGRFTISRDNSKNTLYLQMNSLRAEDTAVYYCARVRYNWNHGDWFDPWGQGTLVTVSS[no letters for human IgG1 constant region] light: QSVLTQPPSASGTPGQRVTISCSGSSSNIGNNYVSWYQQLPGTAPKLLIYENYNRPAGVPDRFSGSKSGTSASLAISGLRSEDEADYYCSSWDDSLNYWVFGGGTKLTVLGQPKAAPSVTLFPPSSEELQANKATLVCLISDFYPGAVTVAWKADSSPVKAGVETTTPSKQSNNKYAASSYLSLTPEQWKSHRSYSCQVTHEGSTVEKTVAPTECS	4 nM	0.496 nM
Example 6 (immunoconjugate of M048-D01-hIgG1, coupled to cysteine side chains) (antibody, here or on the partner: auristatin linker-toxophore on sulphur atoms of cysteine residues of the partially reduced antibody, positions not stated (drug/mAb ratio 2.7 for the antibody)) heavy: QVELLESGGGLVQPGGSLRLSCAASGFTFSSYAMSWVRQAPGKGLEWVSAISGSGTSTYYADSVKGRFTISRDNSKNTLYLQMNSLRAEDTAVYYCARVRYNWNHGDWFDPWGQGTLVTVSS[no letters for human IgG1 constant region] light: QSVLTQPPSASGTPGQRVTISCSGSSSNIGNNYVSWYQQLPGTAPKLLIYENYNRPAGVPDRFSGSKSGTSASLAISGLRSEDEADYYCSSWDDSLNYWVFGGGTKLTVLGQPKAAPSVTLFPPSSEELQANKATLVCLISDFYPGAVTVAWKADSSPVKAGVETTTPSKQSNNKYAASSYLSLTPEQWKSHRSYSCQVTHEGSTVEKTVAPTECS	6.85 nM	0.497 nM
Example 7 (immunoconjugate of M048-D01-hIgG1-b, coupled to lysine side chains) (antibody, here or on the partner: auristatin linker-toxophore on side chain NH of lysine residues, positions not stated (drug/mAb ratio 6.1 for the antibody)) heavy: EVQLLESGGGLVQPGGSLRLSCAASGFTFSSYAMSWVRQAPGKGLEWVSAISGSGTSTYYADSVKGRFTISRDNSKNTLYLQMNSLRAEDTAVYYCARVRYNWNHGDWFDPWGQGTLVTVSS[no letters for human IgG1 constant region] light: QSVLTQPPSASGTPGQRVTISCSGSSSNIGNNYVSWYQQLPGTAPKLLIYENYNRPAGVPDRFSGSKSGTSASLAISGLRSEDEADYYCSSWDDSLNYWVFGGGTKLTVLGQPKAAPSVTLFPPSSEELQANKATLVCLISDFYPGAVTVAWKADSSPVKAGVETTTPSKQSNNKYAASSYLSLTPEQWKSHRSYSCQVTHEGSTVEKTVAPTECS	0.628 nM	0.209 nM
Example 8 (immunoconjugate of M048-D01-hIgG1-b, coupled to cysteine side chains) (antibody, here or on the partner: auristatin linker-toxophore on sulphur atoms of cysteine residues of the partially reduced antibody, positions not stated (drug/mAb ratio 3.5 for the antibody)) heavy: EVQLLESGGGLVQPGGSLRLSCAASGFTFSSYAMSWVRQAPGKGLEWVSAISGSGTSTYYADSVKGRFTISRDNSKNTLYLQMNSLRAEDTAVYYCARVRYNWNHGDWFDPWGQGTLVTVSS[no letters for human IgG1 constant region] light: QSVLTQPPSASGTPGQRVTISCSGSSSNIGNNYVSWYQQLPGTAPKLLIYENYNRPAGVPDRFSGSKSGTSASLAISGLRSEDEADYYCSSWDDSLNYWVFGGGTKLTVLGQPKAAPSVTLFPPSSEELQANKATLVCLISDFYPGAVTVAWKADSSPVKAGVETTTPSKQSNNKYAASSYLSLTPEQWKSHRSYSCQVTHEGSTVEKTVAPTECS	8.67 nM	2.06 nM
Example 2 (immunoconjugate of M048-D01-hIgG1, coupled to lysine side chains) (antibody, here or on the partner: auristatin linker-toxophore on side chain NH of lysine residues, positions not stated (drug/mAb ratio 3.9 for the antibody)) heavy: QVELLESGGGLVQPGGSLRLSCAASGFTFSSYAMSWVRQAPGKGLEWVSAISGSGTSTYYADSVKGRFTISRDNSKNTLYLQMNSLRAEDTAVYYCARVRYNWNHGDWFDPWGQGTLVTVSS[no letters for human IgG1 constant region] light: QSVLTQPPSASGTPGQRVTISCSGSSSNIGNNYVSWYQQLPGTAPKLLIYENYNRPAGVPDRFSGSKSGTSASLAISGLRSEDEADYYCSSWDDSLNYWVFGGGTKLTVLGQPKAAPSVTLFPPSSEELQANKATLVCLISDFYPGAVTVAWKADSSPVKAGVETTTPSKQSNNKYAASSYLSLTPEQWKSHRSYSCQVTHEGSTVEKTVAPTECS	0.86 nM	1.19 nM

Next, values leading:

MFM-223, IC50, 72 hr (growth inhibition)	SNU-16, IC50, 72 hr (growth inhibition)	Binder
4.78 nM	2.05 nM	Example 9 (immunoconjugate of M048-D01-hIgG1-b, coupled to lysine side chains) (antibody, here or on the partner: auristatin linker-toxophore on side chain NH of lysine residues, positions not stated (drug/mAb ratio 6.1 for the antibody)) heavy: EVQLLESGGGLVQPGGSLRLSCAASGFTFSSYAMSWVRQAPGKGLEWVSAISGSGTSTYYADSVKGRFTISRDNSKNTLYLQMNSLRAEDTAVYYCARVRYNWNHGDWFDPWGQGTLVTVSS[no letters for human IgG1 constant region] light: QSVLTQPPSASGTPGQRVTISCSGSSSNIGNNYVSWYQQLPGTAPKLLIYENYNRPAGVPDRFSGSKSGTSASLAISGLRSEDEADYYCSSWDDSLNYWVFGGGTKLTVLGQPKAAPSVTLFPPSSEELQANKATLVCLISDFYPGAVTVAWKADSSPVKAGVETTTPSKQSNNKYAASSYLSLTPEQWKSHRSYSCQVTHEGSTVEKTVAPTECS
10.3 nM	0.519 nM	Example 10 (immunoconjugate of M048-D01-hIgG1-b, coupled to cysteine side chains) (antibody, here or on the partner: auristatin linker-toxophore on sulphur atoms of cysteine residues of the partially reduced antibody, positions not stated (drug/mAb ratio 4.4 for the antibody)) heavy: EVQLLESGGGLVQPGGSLRLSCAASGFTFSSYAMSWVRQAPGKGLEWVSAISGSGTSTYYADSVKGRFTISRDNSKNTLYLQMNSLRAEDTAVYYCARVRYNWNHGDWFDPWGQGTLVTVSS[no letters for human IgG1 constant region] light: QSVLTQPPSASGTPGQRVTISCSGSSSNIGNNYVSWYQQLPGTAPKLLIYENYNRPAGVPDRFSGSKSGTSASLAISGLRSEDEADYYCSSWDDSLNYWVFGGGTKLTVLGQPKAAPSVTLFPPSSEELQANKATLVCLISDFYPGAVTVAWKADSSPVKAGVETTTPSKQSNNKYAASSYLSLTPEQWKSHRSYSCQVTHEGSTVEKTVAPTECS
0.581 nM	0.614 nM	Example 11 (immunoconjugate of M048-D01-hIgG1-b, coupled to cysteine side chains) (antibody, here or on the partner: auristatin linker-toxophore on sulphur atoms of cysteine residues of the partially reduced antibody, positions not stated (drug/mAb ratio 4.8 for the antibody)) heavy: EVQLLESGGGLVQPGGSLRLSCAASGFTFSSYAMSWVRQAPGKGLEWVSAISGSGTSTYYADSVKGRFTISRDNSKNTLYLQMNSLRAEDTAVYYCARVRYNWNHGDWFDPWGQGTLVTVSS[no letters for human IgG1 constant region] light: QSVLTQPPSASGTPGQRVTISCSGSSSNIGNNYVSWYQQLPGTAPKLLIYENYNRPAGVPDRFSGSKSGTSASLAISGLRSEDEADYYCSSWDDSLNYWVFGGGTKLTVLGQPKAAPSVTLFPPSSEELQANKATLVCLISDFYPGAVTVAWKADSSPVKAGVETTTPSKQSNNKYAASSYLSLTPEQWKSHRSYSCQVTHEGSTVEKTVAPTECS
0.145 nM	0.389 nM	Example 12 (immunoconjugate of M048-D01-hIgG1-b, coupled to cysteine side chains) (antibody, here or on the partner: auristatin linker-toxophore on sulphur atoms of cysteine residues of the partially reduced antibody, positions not stated (drug/mAb ratio 4.0 for the antibody)) heavy: EVQLLESGGGLVQPGGSLRLSCAASGFTFSSYAMSWVRQAPGKGLEWVSAISGSGTSTYYADSVKGRFTISRDNSKNTLYLQMNSLRAEDTAVYYCARVRYNWNHGDWFDPWGQGTLVTVSS[no letters for human IgG1 constant region] light: QSVLTQPPSASGTPGQRVTISCSGSSSNIGNNYVSWYQQLPGTAPKLLIYENYNRPAGVPDRFSGSKSGTSASLAISGLRSEDEADYYCSSWDDSLNYWVFGGGTKLTVLGQPKAAPSVTLFPPSSEELQANKATLVCLISDFYPGAVTVAWKADSSPVKAGVETTTPSKQSNNKYAASSYLSLTPEQWKSHRSYSCQVTHEGSTVEKTVAPTECS
0.431 nM	0.254 nM	Example 13 (immunoconjugate of M048-D01-hIgG1-b, coupled to lysine side chains) (antibody, here or on the partner: auristatin linker-toxophore on side chain NH of lysine residues, positions not stated (drug/mAb ratio 1.5 for the antibody)) heavy: EVQLLESGGGLVQPGGSLRLSCAASGFTFSSYAMSWVRQAPGKGLEWVSAISGSGTSTYYADSVKGRFTISRDNSKNTLYLQMNSLRAEDTAVYYCARVRYNWNHGDWFDPWGQGTLVTVSS[no letters for human IgG1 constant region] light: QSVLTQPPSASGTPGQRVTISCSGSSSNIGNNYVSWYQQLPGTAPKLLIYENYNRPAGVPDRFSGSKSGTSASLAISGLRSEDEADYYCSSWDDSLNYWVFGGGTKLTVLGQPKAAPSVTLFPPSSEELQANKATLVCLISDFYPGAVTVAWKADSSPVKAGVETTTPSKQSNNKYAASSYLSLTPEQWKSHRSYSCQVTHEGSTVEKTVAPTECS
1.91 nM	0.914 nM	Example 14 (immunoconjugate of M048-D01-hIgG1-b, coupled to cysteine side chains) (antibody, here or on the partner: auristatin linker-toxophore on sulphur atoms of cysteine residues of the partially reduced antibody, positions not stated (drug/mAb ratio 2.7 for the antibody)) heavy: EVQLLESGGGLVQPGGSLRLSCAASGFTFSSYAMSWVRQAPGKGLEWVSAISGSGTSTYYADSVKGRFTISRDNSKNTLYLQMNSLRAEDTAVYYCARVRYNWNHGDWFDPWGQGTLVTVSS[no letters for human IgG1 constant region] light: QSVLTQPPSASGTPGQRVTISCSGSSSNIGNNYVSWYQQLPGTAPKLLIYENYNRPAGVPDRFSGSKSGTSASLAISGLRSEDEADYYCSSWDDSLNYWVFGGGTKLTVLGQPKAAPSVTLFPPSSEELQANKATLVCLISDFYPGAVTVAWKADSSPVKAGVETTTPSKQSNNKYAASSYLSLTPEQWKSHRSYSCQVTHEGSTVEKTVAPTECS
16.9 nM	16.6 nM	Example 15 (immunoconjugate of M048-D01-hIgG1-b, coupled to cysteine side chains) (antibody, here or on the partner: auristatin linker-toxophore on sulphur atoms of cysteine residues of the partially reduced antibody, positions not stated (drug/mAb ratio 3.9 for the antibody)) heavy: EVQLLESGGGLVQPGGSLRLSCAASGFTFSSYAMSWVRQAPGKGLEWVSAISGSGTSTYYADSVKGRFTISRDNSKNTLYLQMNSLRAEDTAVYYCARVRYNWNHGDWFDPWGQGTLVTVSS[no letters for human IgG1 constant region] light: QSVLTQPPSASGTPGQRVTISCSGSSSNIGNNYVSWYQQLPGTAPKLLIYENYNRPAGVPDRFSGSKSGTSASLAISGLRSEDEADYYCSSWDDSLNYWVFGGGTKLTVLGQPKAAPSVTLFPPSSEELQANKATLVCLISDFYPGAVTVAWKADSSPVKAGVETTTPSKQSNNKYAASSYLSLTPEQWKSHRSYSCQVTHEGSTVEKTVAPTECS
